Values marked as one replicate rest on one cluster of the flow cell; about a third of the high ones do not repeat.
tested on: ATP; assay: switch fluorescence ratio, 500 uM ATP over buffer (Cy3 cluster intensity, sum of 5 cycles each) (fold (ratio)); higher = stronger signal-on switching upon ATP binding; sequences stand for … in TCGTCGGCAGCGTCAGATGTGTATAAGAGACAGTTTTTTTTTTTTTTTTTTTTTTTTT…TC; settings: aptamer strand: ATP DNA aptamer (quencher-CACCTGGGGGAGTATTGCGGAGGAAGG + anchor), 100 nM annealed; ATP concentration: 500 uM; one replicate
Outline: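 Clusters carrying Cy3-labelled switching strands on a modified Illumina MiSeq flow-cell were annealed to 100 nM quencher-labelled ATP aptamer and imaged in selection buffer. They were imaged again after 15 min with 500 uM ATP at 22 °C, over five buffer/ATP cycles with NaOH stripping and re-annealing in between. For each cluster, the fluorescence ratio is the summed Cy3 intensity of the target cycles divided by that of the buffer cycles, averaged per switch-domain sequence. Clusters outside 100-1000 RFU were left out.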
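Note: ATP exposure 15 min at 22 °C before imaging.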

Sequence	switch fluorescence ratio
TCGTTGATGG	0.99
TCGTTGCGAC	1.01
TCGTTGGCCC	0.996
TCGTTGTAG	0.987
TCGTTGTTAA	1.03
TCGTTTAGTC	0.961
TCGTTTCACC	0.951
TCGTTTTAAG	0.981
TCTAAAATAT	1.01
TCTAACAAGA	1.03
TCTAACGGG	1.04
TCTAAGCATG	1.03
TCTAATGAGT	0.998
TCTAATTCCC	0.97
TCTACAACGT	1.02
TCTACCCATT	1.04
TCTACTTCTC	1.1
TCTAGACAAA	0.998
TCTAGATTTG	0.977
TCTAGCGAGG	1
TCTAGCTGTG	1.03
TCTAGGCTAT	1
TCTAGGCTGC	0.967
TCTAGGGGCT	1.04
TCTAGTATTC	0.988

Sequence	switch fluorescence ratio
TCTAGTCACA	1.03
TCTAGTCCAG	0.981
TCTAGTTGCC	0.97
TCTATAGAGT	1.03
TCTATGGGG	0.989
TCTATGTCCC	1.03
TCTATTGAGT	0.994
TCTCAACGTG	1.02
TCTCAAGCCC	1.1
TCTCAAGGTT	0.993
TCTCACAGTC	1.02
TCTCACATCA	1.08
TCTCAGCACA	1.41
TCTCAGTATG	1.03
TCTCAGTCGC	0.99
TCTCCCAGGG	1.16
TCTCCCATTG	1.3
TCTCCCTTAG	1.31
TCTCCCTTT	1.02
TCTCCGTACG	2.86
TCTCGTCCAT	1.05
TCTCGTCTGT	0.987
TCTCGTTCGC	1.07
TCTCTACTCG	1.01
TCTCTAGTTT	1.01

Sequence	switch fluorescence ratio
TCTCTCCAAT	1.72
TCTCTTTGGA	0.991
TCTGAAAAGT	0.996
TCTGACCACT	1.08
TCTGACCGTC	1.06
TCTGAGGGG	0.981
TCTGAGGGGT	1.02
TCTGAGTATT	1.01
TCTGATCGGG	1.03
TCTGATTTGA	1.04
TCTGCTGGAC	1.42
TCTGGAAAAT	1.03
TCTGGAATGG	1.49
TCTGGCTTGG	0.99
TCTGGGGCAT	1.1
TCTGGTCCAG	1.04
TCTGGTGGTG	1.04
TCTGTGAGTT	0.996
TCTGTTACCA	0.973
TCTGTTTAGT	0.982
TCTTAACAT	1.04
TCTTAACCCG	0.98
TCTTAGTGGT	0.98
TCTTAGTTTT	0.955
TCTTATCGTC	1

Sequence	switch fluorescence ratio
TCTTATGTTT	0.969
TCTTATTTCC	0.952
TCTTCAGAGT	0.986
TCTTCATGTT	1.04
TCTTCCAGAT	1.03
TCTTCCTTTT	1.27
TCTTCGAGGC	1.07
TCTTCTTCGG	1.01
TCTTGAAGCC	1.01
TCTTGACAAC	1.01
TCTTGATATT	1.03
TCTTGCAACA	1.07
TCTTGCGGCT	1.02
TCTTGGCGCA	1.04
TCTTGGCTG	1.06
TCTTGGGGAT	1.11
TCTTGGTGTT	0.967
TCTTGTATCA	1.01
TCTTGTGGGA	1
TCTTTAAAAG	0.993
TCTTTCTA	0.983
TCTTTCTAGT	0.979
TCTTTGGCAA	2.42
TCTTTGTGT	0.989
TCTTTTGATT	1.03
